The source of these data is article PMC4526114, “Structure and vascular function of MEKK3–cerebral cavernous malformations 2 complex” (Nature Communications, 2015).

Numbering of substitutions follows the chain as printed. These are yes or no findings as the source states them, for the method shown. For some of these results: In cells and extracts the contact can be indirect. Some results given as binding are weak or reduced against the parent protein; the word gives no strength. For some of these results: Tags and fused reporters may be left off the sequences shown.

One assay concerns the target T1, MEKK3^NPB1 (human, UniProt Q99759 1-124).
T1 construct: MEKK3 (MAP3K3), human, residues 1–124 (N-terminal helix and PB1 domain); also called N terminus of MEKK3; 6 × His–MEKK3^NPB1 (before cleavage); not shown: His6, N-terminal, cleaved
T1 sequence: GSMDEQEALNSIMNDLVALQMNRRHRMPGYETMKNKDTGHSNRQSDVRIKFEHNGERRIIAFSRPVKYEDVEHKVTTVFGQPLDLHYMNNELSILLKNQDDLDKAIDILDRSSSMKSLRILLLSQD
The experiment in a line: ITC; CCM2^HHD injected into MEKK3^NPB1 in 20 2.5-μl injections at 25 °C; 150 mM NaCl, 50 mM HEPES pH 7.5; nano-ITC; 'observed Kd'; both purified. On the technique in general: In ITC the heat of successive injections is recorded.

The target of a further assay is T2, GST–MEKK3^NPB1 (human) (UniProt Q99759).
T2 sequence: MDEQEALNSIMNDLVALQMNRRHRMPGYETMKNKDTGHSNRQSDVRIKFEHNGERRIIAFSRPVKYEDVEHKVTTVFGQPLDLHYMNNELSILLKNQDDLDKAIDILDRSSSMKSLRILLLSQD
As to the kind of experiment: condition: 60 μg purified CCM2 in a total 500 μl volume; pull-down; GST fusions of MEKK3 immobilised on glutathione Sepharose-4B beads; 5 μl bead slurry and 60 μg purified CCM2 in 500 μl, 4 °C, 2 h; 150 mM NaCl, 50 mM Tris pH 7.5, 0.1% Triton-X100; Coomassie-stained SDS–PAGE of washed beads; both purified.

For assay [1], the target named is Flag-tagged full-length CCM2 (human) (UniProt Q9BSQ5). The experiment in a line: co-IP; HA-tagged MEKK3 or mutants cotransfected with Flag-tagged CCM2 or mutants into 293T cells; lysis 24 h later in 20 mM Tris-HCl pH 7.4, 250 mM NaCl, 0.5% NP-40; Flag–CCM2 immunoprecipitated with anti-Flag M2; immunoblot with anti-HA and anti-Flag.
In assay [2] the target is T3, MEKK3^NPB1 (D13R) (human) (UniProt Q99759).
T3 sequence: T1 sequence with D15R
The experiment in a line: ITC; CCM2^HHD injected into MEKK3^NPB1 in 20 2.5-μl injections at 25 °C; 150 mM NaCl, 50 mM HEPES pH 7.5; nano-ITC; 'observed Kd'; both purified.

Assay [3] deals with T4, MEKK3^NPB1 (A6D/L7D) (human) (UniProt Q99759).
T4 sequence: T1 sequence with A8D, L9D
The assay is described as above.

A further assay has as its target T5, GST–MEKK3^PB1 (human) (UniProt Q99759).
T5 sequence: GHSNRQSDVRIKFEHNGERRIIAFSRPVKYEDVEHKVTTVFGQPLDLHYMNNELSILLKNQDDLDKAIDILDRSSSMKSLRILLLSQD
As to the kind of experiment: condition: 60 μg purified CCM2 in a total 500 μl volume; pull-down; GST fusions of MEKK3 immobilised on glutathione Sepharose-4B beads; 5 μl bead slurry and 60 μg purified CCM2 in 500 μl, 4 °C, 2 h; 150 mM NaCl, 50 mM Tris pH 7.5, 0.1% Triton-X100; Coomassie-stained SDS–PAGE of washed beads; both purified.

Another assay has as its target T6, GST–MEKK3^N (human) (UniProt Q99759).
T6 sequence: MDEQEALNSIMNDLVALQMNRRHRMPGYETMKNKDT
The description is as above.

“CCM2^HHD (A319D/A320D) (from UniProt Q9BSQ5 283-379) (domain or fragment)”: the binding result with MEKK3^NPB1 is “no binding”.

B1: CCM2^PTB (domain or fragment, UniProt Q9BSQ5 51-251)
chain: GSERVEPDRLLSDYIEKEVKYLGQLTSIPGYLNPSSRTEILHFIDNAKRAHQLPGHLTQEHDAVLSLSAYNVKLAWRDGEDIILRVPIHDIAAVSYVRDDAAHLVVLKTAQDPGISPSQSLCAESSRGLSAGSLSESAVGPVEACCLVILAAESKVAAEELCCLLGQVFQVVYTESTIDFLDRAIFDGASTPTHHLSLHSDDS
On to B1, for which, in the assay with GST–MEKK3^NPB1 (human), the binding result is “no binding”.

B2: HA–MEKK3^FL (protein, UniProt Q99759 1-626)
chain: MDEQEALNSIMNDLVALQMNRRHRMPGYETMKNKDTGHSNRQSDVRIKFEHNGERRIIAFSRPVKYEDVEHKVTTVFGQPLDLHYMNNELSILLKNQDDLDKAIDILDRSSSMKSLRILLLSQDRNHNSSSPHSGVSRQVRIKASQSAGDINTIYQPPEPRSRHLSVSSQNPGRSSPPPGYVPERQQHIARQGSYTSINSEGEFIPETSEQCMLDPLSSAENSLSGSCQSLDRSADSPSFRKSRMSRAQSFPDNRQEYSDRETQLYDKGVKGGTYPRRYHVSVHHKDYSDGRRTFPRIRRHQGNLFTLVPSSRSLSTNGENMGLAVQYLDPRGRLRSADSENALSVQERNVPTKSPSAPINWRRGKLLGQGAFGRVYLCYDVDTGRELASKQVQFDPDSPETSKEVSALECEIQLLKNLQHERIVQYYGCLRDRAEKTLTIFMEYMPGGSVKDQLKAYGALTESVTRKYTRQILEGMSYLHSNMIVHRDIKGANILRDSAGNVKLGDFGASKRLQTICMSGTGMRSVTGTPYWMSPEVISGEGYGRKADVWSLGCTVVEMLTEKPPWAEYEAMAAIFKIATQPTNPQLPSHISEHGRDFLRRIFVEARQRPSAEELLTHHFAQLMY
For B2, the binding entry in assay [1] is “binds”.

B3: CCM2^HHD (domain or fragment, human)
chain: GSSKTISESELSASATELLQDYMLTLRTKLSSQEIQQFAALLHEYRNGASIHEFCINLRQLYGDSRKFLLLGLRPFIPEKDSQHFENFLETIGVKDGRG
notes: CCM2, human, residues 283–379 (harmonin homology domain); also called CCM2 harmonin homology domain; CCM2^HHD: 283–379; source: E. coli Rosetta (DE3), purified (HisTrap, TEV cleavage, size exclusion); not shown: His6, N-terminal, cleaved
Consider B3, for which the binding result (in assay [2]; in assay [3]; with GST–MEKK3^PB1 (human); with GST–MEKK3^N (human)) was “no binding” each time.
